{"source": "paper PMC4336329", "about": "(PLoS ONE, 2015)", "note": "Out of some 310,000 compounds screened, about 14,000 (4.5%) showed an effect of 50% or more. The effect is printed as a negative number. This is one part of the list.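 Note: peak tail current of the secondary pulse compared with the same well before compound.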"}
{"biological_target": "human ether-à-go-go-related gene (hERG) potassium channel (human, UniProt Q12809)", "sequence (Q12809 whole entry, looked up)": "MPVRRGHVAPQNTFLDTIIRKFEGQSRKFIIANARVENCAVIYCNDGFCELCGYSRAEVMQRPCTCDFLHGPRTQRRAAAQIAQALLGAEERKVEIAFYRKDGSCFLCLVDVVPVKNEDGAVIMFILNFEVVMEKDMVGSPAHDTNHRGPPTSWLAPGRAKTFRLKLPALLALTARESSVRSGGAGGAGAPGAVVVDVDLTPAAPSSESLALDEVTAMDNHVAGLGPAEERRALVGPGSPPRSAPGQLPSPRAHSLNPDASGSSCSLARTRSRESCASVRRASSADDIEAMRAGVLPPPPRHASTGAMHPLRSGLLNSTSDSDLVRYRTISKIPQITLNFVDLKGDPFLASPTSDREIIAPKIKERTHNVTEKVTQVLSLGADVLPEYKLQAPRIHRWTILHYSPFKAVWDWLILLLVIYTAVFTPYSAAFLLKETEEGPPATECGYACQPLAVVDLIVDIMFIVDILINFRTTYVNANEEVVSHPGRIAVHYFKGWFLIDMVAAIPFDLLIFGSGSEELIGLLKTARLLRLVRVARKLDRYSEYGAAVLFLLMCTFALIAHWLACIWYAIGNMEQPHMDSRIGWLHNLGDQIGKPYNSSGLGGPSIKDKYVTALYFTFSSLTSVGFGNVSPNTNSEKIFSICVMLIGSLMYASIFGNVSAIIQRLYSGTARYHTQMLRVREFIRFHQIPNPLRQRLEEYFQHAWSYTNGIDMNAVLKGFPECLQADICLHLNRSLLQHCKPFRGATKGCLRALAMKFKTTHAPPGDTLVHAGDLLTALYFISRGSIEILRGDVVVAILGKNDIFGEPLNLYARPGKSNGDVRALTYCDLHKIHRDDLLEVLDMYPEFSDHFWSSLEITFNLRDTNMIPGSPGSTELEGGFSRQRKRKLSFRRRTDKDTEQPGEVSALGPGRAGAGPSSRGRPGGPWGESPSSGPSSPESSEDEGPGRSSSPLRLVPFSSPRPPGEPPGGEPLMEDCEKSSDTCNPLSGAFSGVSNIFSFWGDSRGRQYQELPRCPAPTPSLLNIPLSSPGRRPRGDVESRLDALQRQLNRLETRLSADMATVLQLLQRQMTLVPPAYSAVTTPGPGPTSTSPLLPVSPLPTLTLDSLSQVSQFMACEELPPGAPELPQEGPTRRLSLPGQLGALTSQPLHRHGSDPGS", "test": "primary screen, population patch clamp on CHO cells stably expressing hERG", "units": {"hERG current change (%, negative = inhibition) at 10uM": "%"}}
{"smiles": "COc1ccccc1C(=O)NC(=O)COC(=O)CCOc1ccccc1C", "hERG current change (%, negative = inhibition) at 10uM": 4.28}
{"smiles": "Cc1ccc2nc(N(CCCN(C)C)C(=O)c3cc4ccccc4oc3=O)sc2c1.Cl", "hERG current change (%, negative = inhibition) at 10uM": -33.7}
{"smiles": "COc1ccc(COCC(O)CN2CCc3ccccc3C2)cc1OC.Cl", "note": "(centres unmarked)", "hERG current change (%, negative = inhibition) at 10uM": 1.52}
{"smiles": "COc1ccc(C)cc1S(=O)(=O)Nc1cccc(Cl)c1", "hERG current change (%, negative = inhibition) at 10uM": 19.1}
{"smiles": "CCCc1cc(=O)n2[nH]c(-c3ccc(C)cc3)cc2n1", "hERG current change (%, negative = inhibition) at 10uM": -0.208}
{"smiles": "O=C1CCC/C(=N/NC(=O)c2ccc(CN3c4cccc5cccc(c45)S3(=O)=O)cc2)C1", "hERG current change (%, negative = inhibition) at 10uM": -0.846}
{"smiles": "CCCC(=O)Nc1ccc(OCC(=O)OC)cc1", "hERG current change (%, negative = inhibition) at 10uM": -3.23}
{"smiles": "CO/N=C/c1cn(-c2ccc(Cl)cc2)nn1", "hERG current change (%, negative = inhibition) at 10uM": -2.53}
{"smiles": "COC(=O)C1=C(N)Oc2cc(C)n(Cc3cccnc3)c(=O)c2C1c1cc(OC)ccc1OC", "note": "(centres unmarked)", "hERG current change (%, negative = inhibition) at 10uM": 3.97}
{"smiles": "Cn1c(=NC(=O)c2ccccc2[N+](=O)[O-])sc2cccc(F)c21", "hERG current change (%, negative = inhibition) at 10uM": -1.1}
{"smiles": "Cc1ccccc1-c1nc(CS(=O)(=O)CC(=O)NCCCN2C(C)CCCC2C)c(C)o1", "note": "(centres unmarked)", "hERG current change (%, negative = inhibition) at 10uM": -22}
{"smiles": "C=CCN(Cc1cccs1)C(=O)CN1CCN(S(=O)(=O)c2ccc3c(c2)OCCCO3)CC1", "hERG current change (%, negative = inhibition) at 10uM": -40.2}
{"smiles": "O=C1c2ccccc2C(=O)N1CC1=CCS(=O)(=O)C1", "hERG current change (%, negative = inhibition) at 10uM": 4.13}
{"smiles": "Cc1nn(-c2ccc(Cl)cc2)c(N)c1C(O)(CSc1nccn1C)C(F)(F)F", "note": "(centres unmarked)", "hERG current change (%, negative = inhibition) at 10uM": -22.9}
{"smiles": "COc1cccc(CNC(=O)CCC2CCCN(C(=O)c3ccoc3)C2)c1", "note": "(centres unmarked)", "hERG current change (%, negative = inhibition) at 10uM": 24.9}
{"smiles": "COc1cc(C(=O)NNC(=O)c2cccc(Cl)c2)ccc1OCC(=O)N1CCOCC1", "hERG current change (%, negative = inhibition) at 10uM": -43.6}
{"smiles": "C=CC(=O)NCc1ccc(-c2csnn2)cc1", "hERG current change (%, negative = inhibition) at 10uM": -19.9}
{"smiles": "CC1(C(=O)NNC(=O)C2CCCCC2)CC1(Cl)Cl", "note": "(centres unmarked)", "hERG current change (%, negative = inhibition) at 10uM": 15.2}
{"smiles": "COc1ccc(CNC(=O)COC(=O)CN2C(=O)NC3(CCCC3)C2=O)cc1", "hERG current change (%, negative = inhibition) at 10uM": -8.23}
{"smiles": "CCC1=NN(C(=O)C(=O)NCCc2ccccc2)C(O)(C(F)(F)F)C1", "note": "(centres unmarked)", "hERG current change (%, negative = inhibition) at 10uM": -9.06}
{"smiles": "Cc1ccccc1CSc1ccc(-c2ccc3c(c2)OCO3)nn1", "hERG current change (%, negative = inhibition) at 10uM": -13.3}
{"smiles": "O=C(CSc1ccc2c(c1)OCCO2)Nc1ncccc1O", "hERG current change (%, negative = inhibition) at 10uM": 7.03}
{"smiles": "O=C(CC1Oc2ccccc2NC1=O)NCCc1ccccc1", "note": "(centres unmarked)", "hERG current change (%, negative = inhibition) at 10uM": -4.18}
{"smiles": "CC(=O)c1ccc(OCc2cc(C(=O)N3CCN4CCCC4C3)no2)cc1", "note": "(centres unmarked)", "hERG current change (%, negative = inhibition) at 10uM": 8.97}
{"smiles": "O=c1[nH]c(=O)n(Cc2ccc(F)cc2)c(O)c1C=NCCCn1ccnc1", "hERG current change (%, negative = inhibition) at 10uM": 4.08}
{"smiles": "CC1(c2ccc3ccccc3c2)NC(=O)N(CC(=O)O)C1=O", "note": "(centres unmarked)", "hERG current change (%, negative = inhibition) at 10uM": -45.7}
{"smiles": "COc1ccccc1C1=NOC(C)(c2nnc(-c3cccc(Cl)c3)o2)C1", "note": "(centres unmarked)", "hERG current change (%, negative = inhibition) at 10uM": 8.33}
{"smiles": "COc1ccccc1C(C#N)N1N=C(C)CC1(C)C", "note": "(centres unmarked)", "hERG current change (%, negative = inhibition) at 10uM": 7.5}
{"smiles": "CCOc1ccc(N=NC2C(=O)N(C(N)=S)N=C2C)cc1", "note": "(centres unmarked)", "hERG current change (%, negative = inhibition) at 10uM": 17.7}
{"smiles": "Nc1nc(CN2CCN(C(=O)c3ccco3)CC2)nc(Nc2cccc(Cl)c2)n1", "hERG current change (%, negative = inhibition) at 10uM": -78.6}
{"smiles": "CC1CCCN(CCC(=O)Nc2ccc3c(c2)CCC3)C1.Cl", "note": "(centres unmarked)", "hERG current change (%, negative = inhibition) at 10uM": -33.5}
{"smiles": "Cc1nc(NC(=O)c2ccc(Cl)cc2)sc1Cc1ccc2c(c1)OCO2", "hERG current change (%, negative = inhibition) at 10uM": 24.3}
{"smiles": "CCN1C(=O)NC(c2cc(Br)ccc2OC)C(C(=O)OC)=C1C", "note": "(centres unmarked)", "hERG current change (%, negative = inhibition) at 10uM": -10.2}
{"smiles": "CCOn1c(=O)c(-c2ccccc2)[n+]([O-])c2ccccc21", "hERG current change (%, negative = inhibition) at 10uM": 1.67}
{"smiles": "CCC(Cc1ccccc1)NC(=O)CCNS(=O)(=O)c1cc(Br)cnc1N", "note": "(centres unmarked)", "hERG current change (%, negative = inhibition) at 10uM": -6.53}
{"smiles": "CCN(Cc1ccccc1)C(=O)c1oc2ccc(C)cc2c1C", "hERG current change (%, negative = inhibition) at 10uM": 8.98}
{"smiles": "Cc1cc(C)cc(NC(=O)c2cc(S(=O)(=O)N3CCCC3)cn2C)c1", "hERG current change (%, negative = inhibition) at 10uM": -4.82}
{"smiles": "c1ccc(-n2c(Cc3cn4ccsc4n3)nnc2N2CCOCC2)cc1", "hERG current change (%, negative = inhibition) at 10uM": -0.0304}
{"smiles": "Cc1ccc(Cl)cc1N1CCN(S(=O)(=O)c2ccc3[nH]c(=O)ccc3c2)CC1", "hERG current change (%, negative = inhibition) at 10uM": 7.74}
{"smiles": "CCCCCCCNC(=O)C1(CC2CC(c3cccc(Br)c3)=NO2)CCN(C(=O)C2(C)CC2)CC1", "note": "(centres unmarked)", "hERG current change (%, negative = inhibition) at 10uM": -26}
{"smiles": "Cc1cc2oc(=O)cc(Cn3ccnc3)c2cc1C", "hERG current change (%, negative = inhibition) at 10uM": 4.08}
{"smiles": "Cc1ccc(NC(=O)c2scc3c2CCCC3)cc1", "hERG current change (%, negative = inhibition) at 10uM": 3.11}
{"smiles": "COc1ccc(OC)c(NC(=O)c2cc(S(=O)(=O)N3CCCC3)cn2C)c1", "hERG current change (%, negative = inhibition) at 10uM": -42.8}
{"smiles": "COC(=O)c1ccc2c(=O)n(-c3ccc(OC)cc3)c(=S)[nH]c2c1", "hERG current change (%, negative = inhibition) at 10uM": 18.1}
